{"source": "patent US20230372458A1", "about": "“ANTIVIRAL AGENT FOR COMBINED THERAPY OF COVID-19 (SARS-COV-2)” (priority 2020, published 2023)", "test_system": "COVID-19 (SARS-CoV-2)", "assay": "Clinical study of intravenous APR + oral FPV, oral FPV alone and intravenous APR alone in patients hospitalized with COVID-19, clinical status 4", "settings": "for Median clinical improvement, 2 points: ordinal scale of clinical improvement", "note": "Values joined by “and” are separate entries in the source; they are usually repeats but may differ in a detail not shown here. Equal values may be shown once."}
{"smiles": "NC(=O)c1nc(F)cnc1O", "note": "[FPV, 6-fluoro-3-hydroxy-2-pyrazinecarboxamide]", "values": [{"measurement": "Median SARS-CoV-2 elimination", "result": 4.5, "unit": "days"}, {"measurement": "Median body temperature normalization (<37° C.)", "result": 3, "unit": "days"}, {"measurement": "Median clinical improvement, 2 points", "result": 8, "unit": "days"}, {"measurement": "Median clinical improvement, 2 points", "setting": "listed as FVP", "result": "8 days and 8.0 days"}]}
